The values that follow come from paper PMC4336329 (PLoS ONE, 2015).

Screen size: about 310,000 compounds; about 14,000 (4.5%) showed an effect of 50% or more. The effect is printed as a negative number. The list shows a part of the results.
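Note: peak tail current of the secondary pulse compared with the same well before compound.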

The assay deals with human ether-à-go-go-related gene (hERG) potassium channel (human, UniProt Q12809). Put plainly: primary screen, population patch clamp on CHO cells stably expressing hERG.
human ether-à-go-go-related gene (hERG) potassium channel, sequence (Q12809 whole entry, looked up): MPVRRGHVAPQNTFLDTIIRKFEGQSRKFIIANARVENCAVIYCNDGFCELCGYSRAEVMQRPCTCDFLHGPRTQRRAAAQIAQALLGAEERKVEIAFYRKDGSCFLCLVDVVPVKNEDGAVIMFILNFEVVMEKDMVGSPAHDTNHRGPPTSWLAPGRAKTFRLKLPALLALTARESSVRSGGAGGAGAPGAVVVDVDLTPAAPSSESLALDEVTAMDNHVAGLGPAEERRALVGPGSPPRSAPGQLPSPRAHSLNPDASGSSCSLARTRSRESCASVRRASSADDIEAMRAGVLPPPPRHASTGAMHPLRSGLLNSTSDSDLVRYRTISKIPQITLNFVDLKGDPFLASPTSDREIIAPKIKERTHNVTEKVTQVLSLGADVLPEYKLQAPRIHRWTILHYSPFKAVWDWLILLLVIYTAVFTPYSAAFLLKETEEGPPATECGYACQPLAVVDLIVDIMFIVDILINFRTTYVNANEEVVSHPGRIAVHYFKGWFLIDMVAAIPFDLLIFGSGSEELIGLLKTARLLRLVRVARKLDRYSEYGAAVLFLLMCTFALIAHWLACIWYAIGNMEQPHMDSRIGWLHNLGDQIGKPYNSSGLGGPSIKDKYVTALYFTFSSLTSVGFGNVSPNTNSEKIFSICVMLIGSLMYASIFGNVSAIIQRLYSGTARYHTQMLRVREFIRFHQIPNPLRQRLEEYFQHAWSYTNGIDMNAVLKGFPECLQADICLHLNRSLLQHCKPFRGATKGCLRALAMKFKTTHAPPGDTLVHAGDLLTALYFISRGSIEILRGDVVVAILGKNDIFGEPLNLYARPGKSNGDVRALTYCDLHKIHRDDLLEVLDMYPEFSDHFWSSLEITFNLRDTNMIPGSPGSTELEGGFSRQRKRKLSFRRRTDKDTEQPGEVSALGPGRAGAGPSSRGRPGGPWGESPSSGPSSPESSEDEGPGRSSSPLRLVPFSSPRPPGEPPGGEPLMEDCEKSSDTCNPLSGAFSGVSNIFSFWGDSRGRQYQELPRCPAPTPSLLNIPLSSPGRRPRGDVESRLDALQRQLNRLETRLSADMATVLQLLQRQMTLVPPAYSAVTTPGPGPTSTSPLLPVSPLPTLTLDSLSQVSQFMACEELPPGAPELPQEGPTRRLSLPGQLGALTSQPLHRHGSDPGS
For the molecule `COc1ccc2oc(C(=O)OC(C)C(=O)NC3(C#N)CCCCC3)c(C)c2c1` (stereo not drawn), the “hERG current change (%, negative = inhibition) at 10uM” value was -15.8%.
For `CS(=O)(=O)c1ccc(Cl)c(NC(=O)COC(=O)CNC(=O)c2sc3ccccc3c2Cl)c1`, the “hERG current change (%, negative = inhibition) at 10uM” value is reported as 3.27%.
Turning to `COc1ccc(NC(=O)CN(C)C(=O)CNC(=O)Cc2cccc3ccccc23)cc1`, the “hERG current change (%, negative = inhibition) at 10uM” value was 17.7%.
Turning to `CCn1c(COc2ccc(C)cc2)nnc1SCC(=O)Nc1ccc2c(c1)OCCO2`, the “hERG current change (%, negative = inhibition) at 10uM” value was 7.22%.
With `COC(=O)C1=C(c2cccc(OCc3ccccc3)c2)C[C@@H]2CC[C@H]1N2C(=O)NCc1cccc(F)c1`, the “hERG current change (%, negative = inhibition) at 10uM” value turned out to be 9.01%.
Take `Cc1ccc2c(c1)N(CCC(=O)NCC1CCCO1)C(=O)CO2` (stereo not drawn): the “hERG current change (%, negative = inhibition) at 10uM” value is -0.659%.
As to `O=C(Nc1cccc(S(=O)(=O)N2CCCCC2)c1)c1ccc(S(=O)(=O)C(F)F)cc1`, the “hERG current change (%, negative = inhibition) at 10uM” value was -18.4%.
With `COC(=O)c1ccc(COn2nnc3ccccc32)cc1`, the “hERG current change (%, negative = inhibition) at 10uM” value was found to be 3.98%.
Consider `CCOC(=O)N1CCC(NC(=O)Cn2nc(-c3ccccc3)ccc2=O)CC1`, for which the “hERG current change (%, negative = inhibition) at 10uM” value amounted to 1.27%.
The value for `COc1ccc([C@H]2CC(=O)C=C(c3cccc4c3Oc3ccccc3S4)C2)cc1` was -28.4%; that for `COc1ccc(CNc2nc(SC)n[nH]2)cc1OC` was 13.8%.
`CN(C)c1nnnn1Cc1ccc(Cl)cc1Cl`: the “hERG current change (%, negative = inhibition) at 10uM” value is -2.12%.
For the molecule `Cn1c(CN2CCOCC2)nnc1SCC(=O)Nc1ccc([N+](=O)[O-])cc1O`, the “hERG current change (%, negative = inhibition) at 10uM” value is 15.8%.
The value for `CN(C)S(=O)(=O)c1cccc(C(=O)Nc2n[nH]c(C(F)(F)F)n2)c1` was 13.1%.
In the case of `O=C(CS(=O)(=O)Cc1ccccc1)NCc1ccccc1Cl`, the “hERG current change (%, negative = inhibition) at 10uM” value stood at 5.16%.
The same measure for `O=C(Nc1ccc(F)cc1F)c1cc(-c2ccco2)on1`: -5.36%; for `COc1ccccc1OC(=O)CCN1c2ccccc2Sc2ccccc21`: 10.5%.
For `CCOc1ccccc1N1CCN(c2nc(N)c(C#N)c(CC#N)c2C#N)CC1`, the “hERG current change (%, negative = inhibition) at 10uM” value was -37.2%.
In the case of `COc1ccc(C2=C(CC(=O)O)C(=O)CC2)cc1`, the “hERG current change (%, negative = inhibition) at 10uM” value is reported as 11.6%.
With `CN(C)/C=C1\N=C(c2cccnc2Oc2ccc(Cl)cc2)OC1=O`, the “hERG current change (%, negative = inhibition) at 10uM” value was -7.31%.
Turning to `COc1ccccc1C(NC(=O)C1CCCCC1)c1c(O)ccc2ccccc12` (stereo not drawn), the “hERG current change (%, negative = inhibition) at 10uM” value is listed as 0.426%.
For the molecule `CC1Sc2ccc(S(=O)(=O)CCC(=O)N3CCCCC3)cc2NC1=O` (stereo not drawn), the “hERG current change (%, negative = inhibition) at 10uM” value is listed as 14.2%.
`N#Cc1c(-c2ccco2)nc(SCC(=O)Nc2cccc(Cl)c2)[nH]c1=O`: the “hERG current change (%, negative = inhibition) at 10uM” value is given as -0.00632%.
On to `Cc1ccc(C(=O)N2CCOCC2)cc1S(=O)(=O)N1CCOCC1`, for which the “hERG current change (%, negative = inhibition) at 10uM” value is reported as 17.1%.
The value for `COc1ccccc1CNC(=O)CSc1ccc(C)cc1` was -10.3%; that for `O=C(NNS(=O)(=O)c1ccc(Br)cc1)NC1CCCCC1` was 7.63%; that for `CCOc1ccccc1/C=C/c1onc(C)c1S(=O)(=O)N1CCC(C(=O)NC(C)C)CC1` was 15.4%.
Consider `O=C(Cc1ccc(-c2ccccc2)cc1)OCC(=O)N1CCCC1=O`, for which the “hERG current change (%, negative = inhibition) at 10uM” value is listed as 8.71%.
The same measure for `COC(=O)c1cc2c(cc1N)OCCO2`: 25.5%; for `CCCc1noc2c1/C(=N\O)CC(c1ccccc1)C2` (stereo not drawn): 8.36%; for `COC(=O)C(C(=O)Nc1cccc(C)n1)C1CCCCCC1` (stereo not drawn): -11.1%.
Turning to `Cc1cc(C(=O)NNS(=O)(=O)c2cc(C(=O)O)ccc2Cl)c(C)n1-c1ccccc1`, the “hERG current change (%, negative = inhibition) at 10uM” value was determined as 7.06%.
For the molecule `CCOC(=O)c1ccccc1NC(=O)Nc1ccc(OC)c(OC)c1`, the “hERG current change (%, negative = inhibition) at 10uM” value is -3.16%.
The same measure for `CC1CCC(Nc2nnnn2-c2ccccc2)CC1` (stereo not drawn): 12.2%; for `O=C(COC(=O)CCN1C(=O)c2cccc([N+](=O)[O-])c2C1=O)NCc1ccccc1`: 52.6%.
The value for `Brc1cccc(CSc2nnc(-c3ccncc3)o2)c1` was -34.2%; that for `CCOC(=O)c1sc(-n2[nH]c(C)cc2=O)nc1C` was 6.98%; that for `COC(=O)C1=C(c2cccc(C#N)c2)C[C@@H]2CC[C@H]1N2C(=O)NCC1CC1` was 10.9%.
On to `CCOc1ccc(CCNC(=O)c2cc3sccc3n2C)cc1OCC`, for which the “hERG current change (%, negative = inhibition) at 10uM” value was -34.4%.
As for `COc1ccc(/C=N/NC2=NS(=O)(=O)c3ccccc32)cc1OC`, the “hERG current change (%, negative = inhibition) at 10uM” value came out at 27%.
For `CCc1ccc2nc(NC(=O)C3CCN(c4ncnc5sc(C)c(C)c45)CC3)sc2c1`, the “hERG current change (%, negative = inhibition) at 10uM” value amounted to 9.21%.
Regarding `Cc1oc(CSCCSCc2cc(C(=O)O)c(C)o2)cc1C(=O)O`, the “hERG current change (%, negative = inhibition) at 10uM” value stood at 16.9%.
The value for `Brc1ccc(NC(c2ccccc2)c2ccncc2)cc1.Cl` (stereo not drawn) was 17%.
For `COCCN(C(=S)Nc1c(C)cc(C)cc1C)C(C)c1cccnc1` (stereo not drawn), the “hERG current change (%, negative = inhibition) at 10uM” value is reported as -12.1%.
On to `COc1ccc(OC)c(NC(=O)c2cc3ccccc3o2)c1`, for which the “hERG current change (%, negative = inhibition) at 10uM” value is reported as 4.19%.
